Reference: the supplement of paper PMC12230231

Test system: SIVsab (simian immunodeficiency virus of sabaeus monkeys), single-cycle GFP reporter, in CRFK cells
Experiment: enrichment among uninfected cells over input (fold); higher = stronger restriction
Conditions: library: human / rhesus combinations
Method: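 Pools of CRFK cells expressing variants of the TRIM5α v1 loop were challenged with the single-cycle reporter, sorted by GFP and sequenced; mean of two replicates.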

Sequence	enrichment
MASGILVNVKEEVTCPICLELLTQPLSLDCGHSFCQACLTANHKKSMLDKGESSCPVCRISYQPENIRPNRHVANIVEKLREVKLSPEGQKVDHCARHGEKLLLFCQEDGKVICWLCERSQEHRGHHTFLTEEVAREYQVKLQAALEMLRQKQQEAEELEADIREEKASWKTQIQYDKTNVLADFEQLRDILDWEESNELQNLEKEEEDILKSLTNSETEMVQQTQSLRELISDLEHRLQGSVMELLQGVDGVIKRTENVTLKKPETFPKNQRRVFRAPDLKGMLEVFRELTDVRRYWVDVTVAPNNISCAVISEDKRQVSSPKPQIIYQARGTRFTFQTLVNFNYCTGILGSQSITSGKHYWEVDVSKKTAWILGVCAGFQPDAMCNIEKNENYQPKYGYWVIGLEEGVKCSAFQDSSFHTPSVPFIVPLSVIICPDRVGVFLDYEACTVSFFNITNHGFLIYKFSHCSFSQPVFPYLNPRKCGVPMTLCSPSS [human TRIM5α, 330-340 = QARGTRFTFQTLV]	0.123 ± 0.088
MASGILVNVKEEVTCPICLELLTQPLSLDCGHSFCQACLTANHKKSMLDKGESSCPVCRISYQPENIRPNRHVANIVEKLREVKLSPEGQKVDHCARHGEKLLLFCQEDGKVICWLCERSQEHRGHHTFLTEEVAREYQVKLQAALEMLRQKQQEAEELEADIREEKASWKTQIQYDKTNVLADFEQLRDILDWEESNELQNLEKEEEDILKSLTNSETEMVQQTQSLRELISDLEHRLQGSVMELLQGVDGVIKRTENVTLKKPETFPKNQRRVFRAPDLKGMLEVFRELTDVRRYWVDVTVAPNNISCAVISEDKRQVSSPKPQIIYGAPGTRFTFQTLVNFNYCTGILGSQSITSGKHYWEVDVSKKTAWILGVCAGFQPDAMCNIEKNENYQPKYGYWVIGLEEGVKCSAFQDSSFHTPSVPFIVPLSVIICPDRVGVFLDYEACTVSFFNITNHGFLIYKFSHCSFSQPVFPYLNPRKCGVPMTLCSPSS [human TRIM5α, 330-340 = GAPGTRFTFQTLV]	0.231 ± 0.045
MASGILVNVKEEVTCPICLELLTQPLSLDCGHSFCQACLTANHKKSMLDKGESSCPVCRISYQPENIRPNRHVANIVEKLREVKLSPEGQKVDHCARHGEKLLLFCQEDGKVICWLCERSQEHRGHHTFLTEEVAREYQVKLQAALEMLRQKQQEAEELEADIREEKASWKTQIQYDKTNVLADFEQLRDILDWEESNELQNLEKEEEDILKSLTNSETEMVQQTQSLRELISDLEHRLQGSVMELLQGVDGVIKRTENVTLKKPETFPKNQRRVFRAPDLKGMLEVFRELTDVRRYWVDVTVAPNNISCAVISEDKRQVSSPKPQIIYGARGTLYTFPSFTNFNYCTGILGSQSITSGKHYWEVDVSKKTAWILGVCAGFQPDAMCNIEKNENYQPKYGYWVIGLEEGVKCSAFQDSSFHTPSVPFIVPLSVIICPDRVGVFLDYEACTVSFFNITNHGFLIYKFSHCSFSQPVFPYLNPRKCGVPMTLCSPSS [human TRIM5α, 330-340 = GARGTLYTFPSFT]	0.0202 ± 0.02
MASGILVNVKEEVTCPICLELLTQPLSLDCGHSFCQACLTANHKKSMLDKGESSCPVCRISYQPENIRPNRHVANIVEKLREVKLSPEGQKVDHCARHGEKLLLFCQEDGKVICWLCERSQEHRGHHTFLTEEVAREYQVKLQAALEMLRQKQQEAEELEADIREEKASWKTQIQYDKTNVLADFEQLRDILDWEESNELQNLEKEEEDILKSLTNSETEMVQQTQSLRELISDLEHRLQGSVMELLQGVDGVIKRTENVTLKKPETFPKNQRRVFRAPDLKGMLEVFRELTDVRRYWVDVTVAPNNISCAVISEDKRQVSSPKPQIIYQAPGTRFQSFVNFNYCTGILGSQSITSGKHYWEVDVSKKTAWILGVCAGFQPDAMCNIEKNENYQPKYGYWVIGLEEGVKCSAFQDSSFHTPSVPFIVPLSVIICPDRVGVFLDYEACTVSFFNITNHGFLIYKFSHCSFSQPVFPYLNPRKCGVPMTLCSPSS [human TRIM5α, 330-340 = QAPGTRFQSFV]	0.546 ± 0.74
MASGILVNVKEEVTCPICLELLTQPLSLDCGHSFCQACLTANHKKSMLDKGESSCPVCRISYQPENIRPNRHVANIVEKLREVKLSPEGQKVDHCARHGEKLLLFCQEDGKVICWLCERSQEHRGHHTFLTEEVAREYQVKLQAALEMLRQKQQEAEELEADIREEKASWKTQIQYDKTNVLADFEQLRDILDWEESNELQNLEKEEEDILKSLTNSETEMVQQTQSLRELISDLEHRLQGSVMELLQGVDGVIKRTENVTLKKPETFPKNQRRVFRAPDLKGMLEVFRELTDVRRYWVDVTVAPNNISCAVISEDKRQVSSPKPQIIYQAPGTLFTFPTFTNFNYCTGILGSQSITSGKHYWEVDVSKKTAWILGVCAGFQPDAMCNIEKNENYQPKYGYWVIGLEEGVKCSAFQDSSFHTPSVPFIVPLSVIICPDRVGVFLDYEACTVSFFNITNHGFLIYKFSHCSFSQPVFPYLNPRKCGVPMTLCSPSS [human TRIM5α, 330-340 = QAPGTLFTFPTFT]	41.4 ± 16
MASGILVNVKEEVTCPICLELLTQPLSLDCGHSFCQACLTANHKKSMLDKGESSCPVCRISYQPENIRPNRHVANIVEKLREVKLSPEGQKVDHCARHGEKLLLFCQEDGKVICWLCERSQEHRGHHTFLTEEVAREYQVKLQAALEMLRQKQQEAEELEADIREEKASWKTQIQYDKTNVLADFEQLRDILDWEESNELQNLEKEEEDILKSLTNSETEMVQQTQSLRELISDLEHRLQGSVMELLQGVDGVIKRTENVTLKKPETFPKNQRRVFRAPDLKGMLEVFRELTDVRRYWVDVTVAPNNISCAVISEDKRQVSSPKPQIIYGAPGTLFTFPTFVNFNYCTGILGSQSITSGKHYWEVDVSKKTAWILGVCAGFQPDAMCNIEKNENYQPKYGYWVIGLEEGVKCSAFQDSSFHTPSVPFIVPLSVIICPDRVGVFLDYEACTVSFFNITNHGFLIYKFSHCSFSQPVFPYLNPRKCGVPMTLCSPSS [human TRIM5α, 330-340 = GAPGTLFTFPTFV]	1.95 ± 0.23

Same assay, conditions: library: insertions and deletions

Sequence	enrichment
MASGILVNVKEEVTCPICLELLTQPLSLDCGHSFCQACLTANHKKSMLDKGESSCPVCRISYQPENIRPNRHVANIVEKLREVKLSPEGQKVDHCARHGEKLLLFCQEDGKVICWLCERSQEHRGHHTFLTEEVAREYQVKLQAALEMLRQKQQEAEELEADIREEKASWKTQIQYDKTNVLADFEQLRDILDWEESNELQNLEKEEEDILKSLTNSETEMVQQTQSLRELISDLEHRLQGSVMELLQGVDGVIKRTENVTLKKPETFPKNQRRVFRAPDLKGMLEVFRELTDVRRYWVDVTVAPNNISCAVISEDKRQVSSPKPQIIYGARGTRYQTFVCTGILGSQSITSGKHYWEVDVSKKTAWILGVCAGFQPDAMCNIEKNENYQPKYGYWVIGLEEGVKCSAFQDSSFHTPSVPFIVPLSVIICPDRVGVFLDYEACTVSFFNITNHGFLIYKFSHCSFSQPVFPYLNPRKCGVPMTLCSPSS [human TRIM5α, 4-codon deletion at 341]	0.646 ± 0.08
MASGILVNVKEEVTCPICLELLTQPLSLDCGHSFCQACLTANHKKSMLDKGESSCPVCRISYQPENIRPNRHVANIVEKLREVKLSPEGQKVDHCARHGEKLLLFCQEDGKVICWLCERSQEHRGHHTFLTEEVAREYQVKLQAALEMLRQKQQEAEELEADIREEKASWKTQIQYDKTNVLADFEQLRDILDWEESNELQNLEKEEEDILKSLTNSETEMVQQTQSLRELISDLEHRLQGSVMELLQGVDGVIKRTENVTLKKPETFPKNQRRVFRAPDLKGMLEVFRELTDVRRYWVDVTVAPNNISCAVISEDKRQVSSPKPQIIYGARGTRYQTFVNRYQTFVNFNYCTGILGSQSITSGKHYWEVDVSKKTAWILGVCAGFQPDAMCNIEKNENYQPKYGYWVIGLEEGVKCSAFQDSSFHTPSVPFIVPLSVIICPDRVGVFLDYEACTVSFFNITNHGFLIYKFSHCSFSQPVFPYLNPRKCGVPMTLCSPSS [human TRIM5α, 7-codon duplication at 335]	0.36 ± 0.3
MASGILVNVKEEVTCPICLELLTQPLSLDCGHSFCQACLTANHKKSMLDKGESSCPVCRISYQPENIRPNRHVANIVEKLREVKLSPEGQKVDHCARHGEKLLLFCQEDGKVICWLCERSQEHRGHHTFLTEEVAREYQVKLQAALEMLRQKQQEAEELEADIREEKASWKTQIQYDKTNVLADFEQLRDILDWEESNELQNLEKEEEDILKSLTNSETEMVQQTQSLRELISDLEHRLQGSVMELLQGVDGVIKRTENVTLKKPETFPKNQRRVFRAPDLKGMLEVFRELTDVRRYWVDVTVAPNNISCAVISEDKRQVSSPKPQIIYGARGTRYQTFVNCTGILGSQSITSGKHYWEVDVSKKTAWILGVCAGFQPDAMCNIEKNENYQPKYGYWVIGLEEGVKCSAFQDSSFHTPSVPFIVPLSVIICPDRVGVFLDYEACTVSFFNITNHGFLIYKFSHCSFSQPVFPYLNPRKCGVPMTLCSPSS [human TRIM5α, 3-codon deletion at 342]	1.27 ± 0.98
MASGILVNVKEEVTCPICLELLTQPLSLDCGHSFCQACLTANHKKSMLDKGESSCPVCRISYQPENIRPNRHVANIVEKLREVKLSPEGQKVDHCARHGEKLLLFCQEDGKVICWLCERSQEHRGHHTFLTEEVAREYQVKLQAALEMLRQKQQEAEELEADIREEKASWKTQIQYDKTNVLADFEQLRDILDWEESNELQNLEKEEEDILKSLTNSETEMVQQTQSLRELISDLEHRLQGSVMELLQGVDGVIKRTENVTLKKPETFPKNQRRVFRAPDLKGMLEVFRELTDVRRYWVDVTVAPNNISCAVISEDKRQVSSPKPQIIYGAKPQIIYGARGTRYQTFVNFNYCTGILGSQSITSGKHYWEVDVSKKTAWILGVCAGFQPDAMCNIEKNENYQPKYGYWVIGLEEGVKCSAFQDSSFHTPSVPFIVPLSVIICPDRVGVFLDYEACTVSFFNITNHGFLIYKFSHCSFSQPVFPYLNPRKCGVPMTLCSPSS [human TRIM5α, 8-codon duplication at 324]	0.373 ± 0.37
MASGILVNVKEEVTCPICLELLTQPLSLDCGHSFCQACLTANHKKSMLDKGESSCPVCRISYQPENIRPNRHVANIVEKLREVKLSPEGQKVDHCARHGEKLLLFCQEDGKVICWLCERSQEHRGHHTFLTEEVAREYQVKLQAALEMLRQKQQEAEELEADIREEKASWKTQIQYDKTNVLADFEQLRDILDWEESNELQNLEKEEEDILKSLTNSETEMVQQTQSLRELISDLEHRLQGSVMELLQGVDGVIKRTENVTLKKPETFPKNQRRVFRAPDLKGMLEVFRELTDVRRYWVDVTVAPNNISCAVISEDKRQVSSPKPQIIYGARGTRYQTFVNFNYSQSITSGKHYWEVDVSKKTAWILGVCAGFQPDAMCNIEKNENYQPKYGYWVIGLEEGVKCSAFQDSSFHTPSVPFIVPLSVIICPDRVGVFLDYEACTVSFFNITNHGFLIYKFSHCSFSQPVFPYLNPRKCGVPMTLCSPSS [human TRIM5α, 6-codon deletion at 345]	1.17 ± 0.94
MASGILVNVKEEVTCPICLELLTQPLSLDCGHSFCQACLTANHKKSMLDKGESSCPVCRISYQPENIRPNRHVANIVEKLREVKLSPEGQKVDHCARHGEKLLLFCQEDGKVICWLCERSQEHRGHHTFLTEEVAREYQVKLQAALEMLRQKQQEAEELEADIREEKASWKTQIQYDKTNVLADFEQLRDILDWEESNELQNLEKEEEDILKSLTNSETEMVQQTQSLRELISDLEHRLQGSVMELLQGVDGVIKRTENVTLKKPETFPKNQRRVFRAPDLKGMLEVFRELTDVRRYWVDVTVAPNNISCAVISEDKRQVSSPKPQIIYGARGTRYQTFVNFFNYCTGILGSQSITSGKHYWEVDVSKKTAWILGVCAGFQPDAMCNIEKNENYQPKYGYWVIGLEEGVKCSAFQDSSFHTPSVPFIVPLSVIICPDRVGVFLDYEACTVSFFNITNHGFLIYKFSHCSFSQPVFPYLNPRKCGVPMTLCSPSS [human TRIM5α, 1-codon duplication at 342]	0.889 ± 0.55

± gives the standard deviation of the averaged measurements. Restriction of a single-cycle SIVsab GFP reporter by TRIM5α v1-loop variants in CRFK cells. Human variants: read share among cells still uninfected after two challenges over input, higher = gained restriction. Rhesus variants: share among infected cells over input, higher = lost restriction. Reporter dose not given per row. No active / inactive call per row; the paper calls a change when both replicates lie above its controls (mean + 2 SD of stop or wild-type variants, or the top frameshift score). Residues outside the varied loop are taken from Swiss-Prot. The paper reads the human single-substitution scores as noise; they and the rhesus combinations repeat poorly (rank correlation 0.3 to 0.4), indel scores repeat only for the top variants, rhesus substitutions well (0.9).
